Several values for one entry are separate records, joined by “and”; a condition that tells them apart may be missing. Equal values may be shown once.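 Dose response: 5 concentrations. Exposure: 48 h. Format: 96-well plates. Endpoint: linear interpolation; highest concentration if not reached. GI50 is the concentration that inhibits growth by half. TGI: total growth inhibition.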

The subject of the assay is NCI-H322M lung. As to the kind of experiment: inhibition of tumour cell growth, NCI panel, 48 h.
As for `COC(=O)CCC(C)C1CCC2C3CCC4CC5CCC4(C)C3(O5)C(Br)C(Br)C12C` (stereo unspecified), the TGI is > 100 µM. Still for that read-out and setting: for `CN(C)/C=C/c1ccncc1` the value was > 100 µM; for `Cc1ccc(/C=C2\CCCC\C2=N\O)cc1`, > 100 µM. On to `CCCCCCCSCC1C(=O)C23C(O)C1CCC2C12COC3(O)C(O)C1C(C)(C)CCC2O` (stereo unspecified), for which the TGI came to 33.4 µM.

Consider `O=C1C(=O)c2ccccc2C(O)=C1CCCCCCCCC1CCCCC1`, for which the TGI was 29.1 µM. As to `COc1ccc2nc(C)cc(Nc3ccccc3O)c2c1`, the GI50 was 28.8 µM and the TGI amounted to 86 µM. For the compound `COc1cc(/C=C2\CC3C4CC[C@H]5C[C@@H](O)CC[C@]5(C)C4CC[C@]3(C)C2=O)cc(OC)c1OC` (stereo partly specified), the TGI was > 100 µM. Consider `CC1=NN(C(=O)c2ccc(Cl)cc2)C(=O)/C1=C/c1ccc(O)cc1`, for which the TGI is > 100 µM. On the same count and under the same terms, for `COc1ccc([C@H](NC(=O)c2ccccc2)[C@@H](O)C(=O)O[C@H]2C[C@@]3(O)C(OC(=O)c4ccccc4)C4[C@](C)(C(=O)[C@H](OC(C)=O)C(=C2C)C3(C)C)[C@@H](O)C[C@H]2OC[C@@]42OC(C)=O)cc1` (stereo partly specified) the value was > 10 µM; for `O=C(n1c(=O)n(-c2ccc(Cl)cc2)c(=O)n1C(=O)C(Cl)(Cl)Cl)C(Cl)(Cl)Cl`, > 100 µM; for `COc1ccc(CCc2ccccc2CC(=O)O)cc1`, > 100 µM. Consider `COc1cccc2c(=O)c3c(sc12)c(NCCN(C)C)nc1ccccc13`, for which the GI50 is 1.6 µM and the TGI was 3.2 µM. Regarding `O=C(/C=C(\O)c1ccc(Cl)cc1)C(=O)NN=C(c1ccccc1)c1ccccc1`, the TGI was > 100 µM. Compound `COC(=O)/C(=C\c1cn(C(C)=O)c2ccccc12)P(=O)(OC)OC` displayed a TGI of 32 µM. For the compound `Clc1ccc(-c2nc3ccc(C45CC6CC(CC(C6)C4)C5)cc3[nH]2)cc1`, the TGI was > 100 µM. With `CC(=O)c1cccc(NC(=O)C(=O)C(C(=O)c2ccccc2F)C2OC(=O)c3ccccc32)c1` (stereo unspecified), the TGI is > 100 µM.

On to `C=CCN=C1NC(=O)C(CC(=O)Nc2ccc(C)cc2)S1` (stereo unspecified), for which the TGI was > 100 µM.

In the case of `CC12CC3CC(C1)CC(N=[N+]=[N-])(C3)C2`, the TGI was > 100 µM.

In the case of `O=C1/C(=C/c2ccc(Cl)cc2)COc2ccc(O)c(O)c21`, the GI50 was 1.47 µM and the TGI was 2.98 µM. For the compound `N#CN1CCC=C(c2cc3ccccc3[nH]2)C1`, the TGI is > 448 µM. Consider `COC1=CC(=O)[C@]2(C)[C@H](C1=O)C(C)[C@H]2c1ccccc1` (stereo partly specified), for which the TGI was > 100 µM. `c1ccc2c3c([nH]c2c1)C1(CCCCC1)c1c([nH]c2ccccc12)C31CCCCC1`: the TGI was > 100 µM.

As to `CCOC(=O)/C=C/c1c[nH]c(C(=O)OCC)c1`, the TGI is > 100 µM. As to `COc1ccc2nc3ccc(OC)cc3c(SCC3CO3)c2c1` (stereo unspecified), the TGI was 35.4 µM. In the case of `O=C(N/N=C\c1ccc(N(CCCl)CCCl)cc1Cl)c1cccnc1`, the GI50 is 26.1 µM and the TGI is > 100 µM. With `O=C(Cc1ccccc1)NNc1nc(NNC(=O)c2ccncc2)nc(Nc2ccc(Cl)cc2)n1`, the TGI was > 10 µM. For `Cc1ccc(N2C(=O)/C(=C/c3ccc(N(CCC#N)CCC#N)cc3C)N=C2c2cc([N+](=O)[O-])ccc2Cl)cc1`, the TGI is > 100 µM.

For `COC(=O)c1cc2oc(/C=C3\SC(=S)N(NC(C)=O)C3=O)cc2n1Cc1ccccc1`, the GI50 was 7.74 µM and the TGI came out at 23.2 µM. Consider `OC(CNC1CCCC1)Cn1c2ccccc2c2ccccc21` (stereo unspecified), for which the GI50 was 97.3 µM and the TGI was > 100 µM. The matching figures for `N#Cc1nc2cc(F)c(F)cc2nc1-c1ccc(Cl)cc1`: 16.4 µM and 39.3 µM. Take `CCN(CC)c1cccc2c1C1(O)CCC3(CC21)OCCCCO3` (stereo unspecified): the TGI was > 100 µM. With `O=C1C[C@H]2CC3(CC[C@H]2CN1)OCCO3`, the TGI is > 100 µM. In the case of `C=CC(=O)Nc1cccc(C)c1Nc1ncc2cc(-c3c(Cl)c(OC)cc(OC)c3Cl)ccc2n1`, the GI50 was 5.81 µM and the TGI stood at 47.8 µM. In turn, `O=C1C(=C(C(=O)c2ccccc2)C(=O)c2ccccc2)OC(c2ccccc2)=C1C(=O)c1ccccc1` had a TGI of 57.1 µM. As for `COCCNC(=O)c1ccc(-c2nc3ccc4[nH]ncc4c3c3c2CCCC3)cc1`, the GI50 is 2.01 µM and the TGI is 66.3 µM. For the compound `CCCCCCCCCCCC[n+]1ccc(C(N)=O)cc1`, the GI50 is 11.8 µM and the TGI worked out at 26.6 µM. Turning to `O=C1CCCC1NC(=O)C(F)(F)F` (stereo unspecified), the TGI is > 100 µM.

In the case of `Cc1c(F)c(N)c2c(=O)cc(-c3ccc(NC(=O)[C@@H](N)CCCCN)c(F)c3)oc2c1F`, the TGI is 27 µM and 21.6 µM. Take `COc1cc(C(=O)CC2(O)C(=O)Nc3c(Cl)cc(Cl)cc32)ccc1O` (stereo unspecified): the TGI is > 100 µM. Take `COc1cc([C@@H]2OC(=O)C3C2C(=O)O[C@H]3c2cc(OC)c(OC)c(OC)c2)cc(OC)c1OC` (stereo partly specified): the TGI was > 100 µM.

Compound `CN(C)/C=C/c1nnnn1-c1ccc(I)cc1` showed a TGI of 71.4 µM. For `CC(C)c1ccc2[nH]c(O)c(C3=Nc4ccccc4C3=O)c2c1`, the TGI was > 100 µM. Same read-out and setting: then `COc1cc(C2(O)c3ccccc3C3=NCCN32)cc(OC)c1OC` (stereo unspecified), with > 100 µM. As for `COc1ccc(/C=C/C(=O)c2cc3c(N)c(C(=O)Nc4ccccc4)sc3nc2C)cc1`, the GI50 was 0.337 µM and the TGI is > 50 µM.

`COC(=O)C(CC(=O)Nc1ccc(Cl)c(Cl)c1)C(=O)C(=O)NC1C2CC3CC(C2)CC1C3` (stereo unspecified): the TGI is > 100 µM. `[O-]c1c[n+](CC[n+]2cc([O-])on2)no1`: the TGI is > 100 µM. As for `O=c1n(CCCCn2c(=O)n(CC3CS3)c3ccccc32)c2ccccc2n1CC1CS1` (stereo unspecified), the TGI was > 100 µM.

Take `Cc1cccc2c1C(=O)OC2(C)c1cccc2ccccc12` (stereo unspecified): the TGI was > 100 µM.

`C/C(=N\NC(=S)NNC(=S)N(C)c1ccccc1)c1ccccn1`: the TGI was > 100 µM. Take `O=C(NCC(C(=O)OCc1ccccc1)C(=O)OCc1ccccc1)OCc1ccccc1`: the TGI is > 100 µM. With `Cc1ccc(/C(O)=C/c2nc3ccccc3[nH]c2=O)c(C)c1`, the TGI is > 60.5 µM. In the case of `Oc1ccc(N=Nc2ccc(N=Nc3ccccc3)cc2)cc1`, the GI50 was 2.53 µM and the TGI was 14.6 µM. Compound `CC[N+]1(C)CCC(O)(/C=C/c2ccc(Cl)cc2)C(C(=O)/C=C/c2ccc(Cl)cc2)C1` (stereo unspecified) came in with a TGI of 32 µM. As to `Cc1nn(-c2nc3ccccc3[nH]2)c2c1C(c1ccc3c(c1)OCO3)CC(=O)N2` (stereo unspecified), the GI50 was 3.45 µM and the TGI is > 30.6 µM. In the case of `Nc1ccccc1OCc1cc(=O)c(OCc2ccccc2)co1`, the TGI was > 100 µM. The compound `CC(C)(C)[Si](C)(C)OCC#C[C@@]1(O)CCCCC1CC(Sc1ccccc1)Sc1ccccc1` (stereo partly specified) gave a TGI of 34.1 µM. For `O=C(/C=C/c1ccc(C(F)(F)F)cc1)c1ccc(Nc2nc(NCCO)nc(N3CCOCC3)n2)cc1`, the GI50 was 2.63 µM and the TGI came out at 10.7 µM.

With `Clc1ccc(SCCCCCCCCCCSc2ccc(Cl)cc2)cc1`, the TGI was > 100 µM. `O=CC1C[C@@H](N2C(=O)O[C@@H](c3ccccc3)[C@H]2c2ccccc2)[C@@H]1COCc1ccccc1` (stereo partly specified): the TGI was 39.9 µM.

Consider `Cc1cccc2c1C/C(=C1\CCc3c(C)cccc31)C2=O`, for which the TGI was > 100 µM. As to `COc1ccc2c(c1)OC(N)=C(C#N)C2c1ccc(F)cc1` (stereo unspecified), the GI50 is 5.68 µM and the TGI is > 100 µM.

`C/C1=C\CC/C(C)=C/C=C(/C(C)C)CC/C(C(=O)O)=C/CC1`: the TGI is > 100 µM.

As to `COc1cc(C2c3cc4c(cc3OC(NCc3ccccc3)C2C)OCO4)cc(OC)c1OC` (stereo unspecified), the TGI was > 100 µM. With `O/N=C1\CCc2cc3c(cc21)CCC3`, the TGI is > 100 µM.

`CC(=O)OC[C@@H](OC(C)=O)[C@@H](OC(C)=O)[C@H]1OC[C@@H]2C[C@H]([C@H]1OC(C)=O)N(Cc1ccccc1)O2`: the TGI was > 100 µM. Take `N#C/C(=C\c1ccc(Br)cc1)c1nc(-c2cc3ccccc3oc2=O)cs1`: the TGI is > 50 µM.

Regarding `CCN1C[C@]2(C)CC[C@H](OCc3ccccc3)C34C5C[C@@H]6CC[C@](O)(C(C[C@@H]32)C14)C5[C@H]6OCc1ccccc1` (stereo partly specified), the TGI was > 100 µM. For the compound `Clc1nc(Cl)c(Cc2ccccc2)c(Cl)n1`, the TGI came out at 34.2 µM. Turning to `CC(C)(C)c1cc(C(=O)/C=C/c2ccc3c(c2)CCO3)cc(C(C)(C)C)c1O`, the TGI is > 100 µM. `O=[N+]([O-])c1ccc(NC(=S)Nc2ccccn2)cc1`: the TGI is > 100 µM.

Consider `C/C(=N/NC(=S)NCCc1ccccn1)c1cnccn1`, for which the TGI is > 100 µM.

For `Cc1ccc(CCCCCOc2ccc(C3=NCCO3)cc2)s1`, the TGI is > 100 µM. Consider `CC(=O)OCC1OC(n2c(C)c(C(C)=O)c(-c3cccc4ccccc34)c(C#N)c2=S)C(OC(C)=O)C(OC(C)=O)C1OC(C)=O` (stereo unspecified), for which the TGI is > 100 µM.

On to `C1=NCCNCCN=Cc2ccccc2OCc2cccc(n2)COc2ccccc21`, for which the TGI is > 100 µM. With `N/C(COc1ccc(Cl)cc1)=N\NC(=O)c1ccncc1`, the TGI is > 100 µM. For the compound `CCOC(=O)c1nc2ccccc2nc1Oc1ccc(OC)cc1`, the TGI was > 100 µM. As for `CCOC(=O)C1=NN(c2ccccc2)C2=CC(C)=NN(C)C(=S)N21`, the TGI is > 100 µM.

Turning to `C=C1CC[C@@H]2[C@](C)(COC(C)=O)[C@H](OC(C)=O)CC[C@@]2(C)[C@@H]1C/C=C1/C(=O)OC[C@H]1OC(C)=O`, the GI50 was 16 µM and the TGI was found to be 29.7 µM. As to `C=CCCCCCC(O)C(O)C/C=C\C/C=C\CC` (stereo unspecified), the TGI is > 18.8 µM. In the case of `CCOC(=O)C#Cc1c(CC(=O)OCC)nnn1[C@H]1O[C@@H](CO)[C@@H]2OC(C)(C)O[C@@H]21`, the GI50 was 17 µM and the TGI was 34.5 µM. `CC1=C(C(=O)Nc2ccc(F)c(Cl)c2)C(c2cccc(Oc3ccccc3)c2)NC(=O)N1` (stereo unspecified): the GI50 was 14 µM and the TGI came out at 28.4 µM. Regarding `CO/N=C(/C(=O)OC)c1ccccc1COc1cccc(C(F)(F)F)c1`, the TGI came out at 72.9 µM. On the same count and under the same terms, then `C[C@@H]1C[C@@]2(O[C@@H]2C)C(=O)O[C@@H]2CCN3CC=C(COC(=O)[C@]1(C)O)[C@H]23`, with > 100 µM; and `O=C(CC(C(=O)c1cccs1)c1ccsc1)c1ccco1` (stereo unspecified), with > 100 µM. Consider `COc1cc(/C=C/C(=O)c2c(C)n([O-])c3ccc(Cl)cc3[n+]2=O)cc(OC)c1OC`, for which the GI50 is 82.8 µM and the TGI is > 100 µM.

In the case of `CCCCCN(CCCCC)CC(O)c1cc2c(c3ccccc13)CCCC2` (stereo unspecified), the GI50 is 10.7 µM and 12.4 µM; the TGI was 23.4 µM and 29.5 µM.

These data come from PubChem BioAssay (NCI).
